From the supplement of paper PMC7826260
This is one part of the list. The data describe in vitro nicking of single-stranded DNA by Rep domains for 1 h at 37 °C with 3 µM enzyme; only the middle of the 90-letter strands is printed. The score is log2 (uncut reads / reads without enzyme); strong cutting gives strongly negative numbers. There is no active / inactive call. Reads are scaled to the total, so uncut sequences can rise above 0 when many others are cut.

Assays:
Test in all cases: uncleaved DNA left, log2 of reads against the no-enzyme library (log2 ratio); higher = less cleavage (more negative = more Rep cleavage of the k-mer); sequences stand for … in CTCGTCCG…ACCGGAGA
[1] = test system: T1, Rep nickase domain of Muscovy duck circovirus
T1 sequence (residues 1-111 of Rep, tag left off): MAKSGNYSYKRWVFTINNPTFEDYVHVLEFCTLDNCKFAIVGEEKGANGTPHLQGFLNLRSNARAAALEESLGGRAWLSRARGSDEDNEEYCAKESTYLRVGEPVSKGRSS
Method: (§1)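 A pool of 90-nt single-stranded DNAs with seven random bases just before the constant AC of the nick site (name = the seven bases) was cut by 3 µM recombinant His6-SUMO-tagged Rep nickase domain (300 nM DNA, 50 mM HEPES pH 8.0, 50 mM NaCl, 1 mM MnCl2, 1 h, 37 °C, three replicates). Uncut DNA was amplified and sequenced.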

[2] = test system: T2, Rep nickase domain of banana bunchy top virus
T2 sequence (residues 1-94 of Rep, tag left off): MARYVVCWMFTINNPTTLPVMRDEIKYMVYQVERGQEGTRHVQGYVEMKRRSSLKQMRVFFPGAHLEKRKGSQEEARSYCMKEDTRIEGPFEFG
Method: as §1

[3] = test system: T3, Rep nickase domain of cabbage leaf curl virus
T3 sequence (residues 1-116 of Rep, tag left off): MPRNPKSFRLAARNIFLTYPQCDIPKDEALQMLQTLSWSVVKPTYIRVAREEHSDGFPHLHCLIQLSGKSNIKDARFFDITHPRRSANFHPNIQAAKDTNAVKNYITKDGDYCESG
Method: as §1

[4] = test system: T4, Rep nickase domain of chickpea chlorotic dwarf virus
T4 sequence (residues 1-124 of Rep, tag left off): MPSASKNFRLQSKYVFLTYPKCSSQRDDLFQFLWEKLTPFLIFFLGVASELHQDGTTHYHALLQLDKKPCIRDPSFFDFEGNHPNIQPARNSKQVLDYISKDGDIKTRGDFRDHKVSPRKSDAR
Method: as §1

[5] = test system: T5, Rep nickase domain of faba bean necrotic yellows virus
T5 sequence (residues 1-98 of Rep, tag left off): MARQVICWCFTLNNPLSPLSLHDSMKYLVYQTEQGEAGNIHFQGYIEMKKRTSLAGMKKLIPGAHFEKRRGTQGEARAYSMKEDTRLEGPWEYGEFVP
Method: as §1

[6] = test system: T6, Rep nickase domain of maize striate mosaic virus
T6 sequence (residues 1-117 of Rep, tag left off): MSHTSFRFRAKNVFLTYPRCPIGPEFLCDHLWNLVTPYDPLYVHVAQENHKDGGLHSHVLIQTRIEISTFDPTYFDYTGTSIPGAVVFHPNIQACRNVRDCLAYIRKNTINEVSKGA
Method: as §1

[7] = test system: T7, Rep nickase domain of porcine circovirus 2
T7 sequence (residues 2-116 of Rep, tag left off): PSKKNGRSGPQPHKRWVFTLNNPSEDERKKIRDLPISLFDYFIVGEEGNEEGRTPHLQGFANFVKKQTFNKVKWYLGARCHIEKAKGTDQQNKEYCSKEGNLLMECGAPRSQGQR
Method: as §1

[8] = test system: T8, Rep nickase domain of tomato golden mosaic virus
T8 sequence (residues 1-124 of Rep, tag left off): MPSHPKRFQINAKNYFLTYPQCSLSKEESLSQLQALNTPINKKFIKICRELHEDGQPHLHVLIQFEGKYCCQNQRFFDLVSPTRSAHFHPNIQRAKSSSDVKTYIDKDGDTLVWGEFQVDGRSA
Method: as §1

[9] = test system: T9, Rep nickase domain of tomato yellow leaf curl virus
T9 sequence (residues 1-136 of Rep, tag left off): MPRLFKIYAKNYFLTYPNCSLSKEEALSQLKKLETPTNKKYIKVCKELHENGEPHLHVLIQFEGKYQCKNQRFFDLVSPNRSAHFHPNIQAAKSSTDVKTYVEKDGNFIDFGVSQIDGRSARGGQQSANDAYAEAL
Method: as §1

[10] = test system: T10, Rep nickase domain of wheat dwarf virus
T10 sequence (residues 1-137 of Rep, tag left off): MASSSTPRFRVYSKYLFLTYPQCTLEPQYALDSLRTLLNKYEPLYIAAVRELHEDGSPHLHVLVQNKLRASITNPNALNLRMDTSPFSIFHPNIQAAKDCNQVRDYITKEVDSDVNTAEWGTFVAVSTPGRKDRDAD
Method: as §1

Sequence	uncleaved DNA left (log2) [1]	uncleaved DNA left (log2) [2]	uncleaved DNA left (log2) [3]	uncleaved DNA left (log2) [4]	uncleaved DNA left (log2) [5]	uncleaved DNA left (log2) [6]	uncleaved DNA left (log2) [7]	uncleaved DNA left (log2) [8]	uncleaved DNA left (log2) [9]	uncleaved DNA left (log2) [10]
GATAGCT	0.0655	-0.0263	0.038	-0.861	0.0757	-0.3	-0.158	0.0351	-0.0104	0.0573
CTACAGT	0.054	0.0213	-0.409	-2.23	0.0866	-0.931	-0.11	-0.0686	0.0162	-0.0747
CGAACTC	0.0428	0.0628	0.092	0.374	-0.0799	0.625	0.124	-0.139	0.0792	0.0568
AAGGCTC	-0.0811	-0.0386	0.11	0.298	-0.0713	0.344	0.0628	0.108	-0.0956	-0.0196
GTTAGCA	-0.0636	0.065	0.311	0.828	0.0127	1.53	0.0974	0.0296	0.0565	0.0503
AATCACG	0.00731	-0.0152	-0.834	0.00818	0.00256	-1.11	0.148	0.0324	0.00436	-0.0147
GGTTATT	-2.46	-0.55	0.404	0.68	-0.139	1.87	-2.47	-0.16	0.134	-0.0416
GGACATG	0.0195	-0.0753	0.813	1.87	0.0734	2.18	0.164	-0.11	-0.0133	0.105
CACTTCC	0.019	-0.0583	-0.127	-0.763	-0.0636	-0.424	-0.576	0.00284	0.0304	-0.0147
TGAGTCA	0.0425	0.0672	0.179	-0.291	0.0541	0.0923	-0.0442	0.0177	0.0103	0.0862
CCTCTAA	-0.0965	0.0099	-0.248	-0.493	-0.0806	-0.65	-0.00499	-0.0599	-0.128	0.0161
GCGGTTG	0.0756	0.0128	0.072	0.584	0.0512	1.61	0.192	0.0683	0.0083	0.0676
TTCTCTT	-2.71	-0.249	-0.239	-2.09	0.0131	-0.282	-3.02	0.00959	-0.0418	-0.0754
GGCGACT	-0.048	-0.0368	0.0714	0.838	-0.0436	1.77	0.0685	0.0212	-0.227	-0.00316
AACCGGG	0.0544	0.033	0.354	0.527	0.0595	0.256	0.17	0.0796	0.0891	0.146
GCAGCGA	0.0281	-0.0857	-0.66	-0.0808	0.054	-0.627	0.174	-0.131	0.0721	-0.156
CTCGAAA	-0.134	-0.0684	-0.0372	-0.146	-0.0751	-0.756	-0.0352	0.0355	0.013	-0.0138
TGTTCCA	-0.0135	-0.0368	0.213	0.0137	-0.0551	0.818	-0.0747	-0.0857	0.113	0.0618
AACGCCA	-0.0741	-0.0243	-0.0814	-1.67	0.0691	0.00565	-0.0215	0.0777	-0.0488	-0.0918
TGGAACA	-0.0733	0.0456	0.642	1.06	-0.0758	1.83	0.0955	-0.057	0.0579	0.0262
CGTTGCG	-0.0106	-0.00069	0.172	1.37	-0.000891	1.57	0.101	-0.0337	-0.0324	-0.0125
TGCACTT	-0.00442	-0.0204	0.0437	-0.351	-0.11	0.769	-0.0405	-0.00628	-0.0179	0.0992
ACGTTGA	0.0486	0.0674	-0.144	-0.226	-0.034	-0.743	0.201	0.0569	-0.0588	0.0268
CGTTCCG	-0.0364	-0.16	-0.93	-0.148	-0.0665	-0.939	0.0268	-0.193	-0.204	-0.178
TACCTAA	0.0161	-0.0573	-0.14	-1.82	-0.0867	-0.545	-0.956	-0.103	-0.0967	-0.0838
CACTAAG	0.0424	0.0693	-0.609	-0.197	0.0998	-0.979	0.16	-0.0164	0.128	0.0326
CTGCTCC	-0.0931	0.0185	-0.000325	0.203	0.0859	0.156	0.0884	-0.0487	-0.0326	-0.00331
CGGGATA	0.117	-0.017	0.703	1.67	0.0555	1.89	0.225	0.085	0.0731	0.154
GAGGATG	-0.036	-0.088	0.0608	0.502	-0.124	0.682	0.00263	-0.0435	-0.0991	-0.0783
CGGTACG	-0.0982	-0.17	-0.729	-0.405	-0.183	-0.846	0.0247	-0.178	-0.113	-0.283
